Here are results for 26 molecules from PMC4336329 (PLoS ONE, 2015).

The whole screen tested about 310,000 compounds, of which about 2,200 (0.71%) showed an effect of 50% or more. Effects have a minus sign here. The list shows a part of the results.

The target of the experiment is human ether-à-go-go-related gene (hERG) potassium channel (human, UniProt Q12809). The experiment is described as follows: primary screen, population patch clamp on CHO cells stably expressing hERG.
Chain of human ether-à-go-go-related gene (hERG) potassium channel (Q12809 whole entry, looked up): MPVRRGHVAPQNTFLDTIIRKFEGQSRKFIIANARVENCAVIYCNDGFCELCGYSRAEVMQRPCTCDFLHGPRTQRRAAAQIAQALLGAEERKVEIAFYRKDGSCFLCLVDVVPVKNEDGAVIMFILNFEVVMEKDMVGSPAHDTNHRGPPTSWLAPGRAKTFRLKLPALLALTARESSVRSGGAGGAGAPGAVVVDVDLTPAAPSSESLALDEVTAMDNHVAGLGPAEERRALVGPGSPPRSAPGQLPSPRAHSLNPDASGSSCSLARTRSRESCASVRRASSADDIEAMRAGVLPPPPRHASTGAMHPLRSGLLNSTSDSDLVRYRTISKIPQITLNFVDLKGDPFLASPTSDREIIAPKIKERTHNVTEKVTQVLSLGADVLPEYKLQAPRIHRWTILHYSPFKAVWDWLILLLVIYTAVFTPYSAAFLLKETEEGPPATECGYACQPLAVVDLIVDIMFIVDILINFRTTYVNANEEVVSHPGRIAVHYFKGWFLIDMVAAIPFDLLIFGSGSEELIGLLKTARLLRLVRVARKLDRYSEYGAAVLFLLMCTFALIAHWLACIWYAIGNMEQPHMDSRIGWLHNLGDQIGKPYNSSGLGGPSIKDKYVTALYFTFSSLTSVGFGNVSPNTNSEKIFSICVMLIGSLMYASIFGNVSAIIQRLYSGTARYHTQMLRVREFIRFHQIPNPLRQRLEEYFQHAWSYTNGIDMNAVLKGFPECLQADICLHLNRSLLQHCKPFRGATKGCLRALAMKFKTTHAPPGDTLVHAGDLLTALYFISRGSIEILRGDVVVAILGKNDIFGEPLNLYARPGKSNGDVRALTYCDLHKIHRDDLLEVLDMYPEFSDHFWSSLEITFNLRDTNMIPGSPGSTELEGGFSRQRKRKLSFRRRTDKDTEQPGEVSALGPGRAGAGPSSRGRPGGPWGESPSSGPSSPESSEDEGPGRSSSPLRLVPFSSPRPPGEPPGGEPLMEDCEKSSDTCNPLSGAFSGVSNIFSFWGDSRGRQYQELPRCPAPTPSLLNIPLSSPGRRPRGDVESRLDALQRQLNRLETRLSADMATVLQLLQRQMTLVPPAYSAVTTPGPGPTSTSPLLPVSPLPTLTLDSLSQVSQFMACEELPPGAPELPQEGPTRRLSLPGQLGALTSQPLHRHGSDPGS
Turning to `O=C(NC1CCOCC1)C1CCC(=O)N(Cc2cccc(C(F)(F)F)c2)C1` (centres unmarked), the “hERG current change (%, negative = inhibition) at 1uM” value was 11%.

Consider `O=C1CC(Cc2ccccc2)C(=O)N1c1ncccn1` (centres unmarked), for which the “hERG current change (%, negative = inhibition) at 1uM” value is listed as 10.7%.

As to `O=C(CSc1ccccc1)Nc1cccc(S(=O)(=O)N2CCCCC2)c1`, the “hERG current change (%, negative = inhibition) at 1uM” value amounted to 2.28%.

`CC(NC(=O)COC(=O)c1ccco1)c1ccccc1` (centres unmarked): the “hERG current change (%, negative = inhibition) at 1uM” value was 0.122%.

Consider `Cc1cccc(/C=C/C(=O)c2ccc(N3CCOCC3)cc2)c1`, for which the “hERG current change (%, negative = inhibition) at 1uM” value is 13.6%.

Turning to `COc1ccccc1NC(=O)C1CCCN(S(=O)(=O)c2cccc3nsnc23)C1` (centres unmarked), the “hERG current change (%, negative = inhibition) at 1uM” value amounted to 9.23%.

Take `CC(=O)c1ccc(N/C=C\C(=O)c2ccc(C)cc2)cc1`: the “hERG current change (%, negative = inhibition) at 1uM” value came to 15.7%.

For the molecule `Cc1cc(C)nc(Nc2nc3ccccc3o2)n1`, the “hERG current change (%, negative = inhibition) at 1uM” value is recorded as 0.768%.

Take `O=C(CC1C(=O)NCCN1Cc1ccccc1)NCCC1=CCCCC1` (centres unmarked): the “hERG current change (%, negative = inhibition) at 1uM” value amounted to 15.5%.

As for `Cc1ccc(-n2ncc3c(=O)[nH]c(SCC(=O)N4CCCC4)nc32)cc1C`, the “hERG current change (%, negative = inhibition) at 1uM” value is recorded as 12.9%.

On to `CC1CCCCN1C(=O)C1CC(c2ccc(F)cc2)=NO1` (centres unmarked), for which the “hERG current change (%, negative = inhibition) at 1uM” value is recorded as -4.43%.

As to `CC1(C)CC(N(Cc2ccccc2)C(=O)Cc2ccccc2)CCO1` (centres unmarked), the “hERG current change (%, negative = inhibition) at 1uM” value was determined as 8.38%.

For the molecule `CCOC(=O)N1CCN(C(=O)c2ccc(CS(=O)c3ccccc3)o2)CC1` (centres unmarked), the “hERG current change (%, negative = inhibition) at 1uM” value is 12%.

As to `CC(C)CCNCC1OCc2ccccc2CO1.Cl`, the “hERG current change (%, negative = inhibition) at 1uM” value amounted to 6.42%.

On to `Cc1ccc(OC(C)C(=O)N/N=C/c2ccccn2)cc1` (centres unmarked), for which the “hERG current change (%, negative = inhibition) at 1uM” value is on record as 18%.

With `CCOc1ccc(NC(=O)CN2CCN(CC(=O)Nc3ccc(F)cc3)CC2)cc1`, the “hERG current change (%, negative = inhibition) at 1uM” value is reported as -87.3%.

As for `CCN(CC)CCNC(=O)COc1ccc(OC)cc1`, the “hERG current change (%, negative = inhibition) at 1uM” value turned out to be 8.68%.

As for `O=C(/C=C(\c1ccc(Cl)cc1)n1cncn1)c1ccc(Cl)cc1`, the “hERG current change (%, negative = inhibition) at 1uM” value amounted to 5.05%.

As for `CC(=O)c1ccc2c(c1)C1C(Cl)C(Sc3ccccc3[N+](=O)[O-])CC1C(C(=O)O)N2` (centres unmarked), the “hERG current change (%, negative = inhibition) at 1uM” value is 0.852%.

`COc1ccc(-c2cc(C(=O)N/N=C/c3cccnc3)c3ccccc3n2)c(OC)c1`: the “hERG current change (%, negative = inhibition) at 1uM” value came to 14.3%.

Turning to `CCOC(=O)c1ccc(NC2OC(=O)c3ccccc32)cc1` (centres unmarked), the “hERG current change (%, negative = inhibition) at 1uM” value worked out at 6.93%.

Turning to `O=C(COC(=O)c1cccc(F)c1)NC1CC1`, the “hERG current change (%, negative = inhibition) at 1uM” value came to 6.21%.

As to `O=C(Cc1cccs1)NCc1cccnc1`, the “hERG current change (%, negative = inhibition) at 1uM” value amounted to 13.5%.

Take `O=C(COC(=O)CC1CCCC1)Nc1ccc(Cl)cn1`: the “hERG current change (%, negative = inhibition) at 1uM” value is 6.46%.

Take `COc1ccc(/C=C/C(=O)c2ccc(OC)cc2OC)c(OC)c1`: the “hERG current change (%, negative = inhibition) at 1uM” value worked out at 13.8%.

Take `CCCCCC(=O)N[C@@H](c1ccccc1)[C@@H](O)C(=O)O[C@H]1C[C@@]2(O)[C@@H](OC(=O)c3ccccc3)C3[C@](C)(C(=O)[C@H](O)C(=C1C)C2(C)C)[C@@H](OC1OCC(O)C(O)C1O)C[C@H]1OC[C@@]31OC(C)=O` (some centres unmarked): the “hERG current change (%, negative = inhibition) at 1uM” value was determined as 12.5%.
